Data: article PMC4560833
Results are given in words; binding and its absence hold for the method and conditions named. In cells and extracts the contact can be indirect. Sequences can lack the tags named with a protein. Each block holds one binder with its values, some of them ahead of it.

Molecular target: T1, Myc-tagged Scap (SREBP cleavage-activating protein) (UniProt Q12770)
T1 sequence: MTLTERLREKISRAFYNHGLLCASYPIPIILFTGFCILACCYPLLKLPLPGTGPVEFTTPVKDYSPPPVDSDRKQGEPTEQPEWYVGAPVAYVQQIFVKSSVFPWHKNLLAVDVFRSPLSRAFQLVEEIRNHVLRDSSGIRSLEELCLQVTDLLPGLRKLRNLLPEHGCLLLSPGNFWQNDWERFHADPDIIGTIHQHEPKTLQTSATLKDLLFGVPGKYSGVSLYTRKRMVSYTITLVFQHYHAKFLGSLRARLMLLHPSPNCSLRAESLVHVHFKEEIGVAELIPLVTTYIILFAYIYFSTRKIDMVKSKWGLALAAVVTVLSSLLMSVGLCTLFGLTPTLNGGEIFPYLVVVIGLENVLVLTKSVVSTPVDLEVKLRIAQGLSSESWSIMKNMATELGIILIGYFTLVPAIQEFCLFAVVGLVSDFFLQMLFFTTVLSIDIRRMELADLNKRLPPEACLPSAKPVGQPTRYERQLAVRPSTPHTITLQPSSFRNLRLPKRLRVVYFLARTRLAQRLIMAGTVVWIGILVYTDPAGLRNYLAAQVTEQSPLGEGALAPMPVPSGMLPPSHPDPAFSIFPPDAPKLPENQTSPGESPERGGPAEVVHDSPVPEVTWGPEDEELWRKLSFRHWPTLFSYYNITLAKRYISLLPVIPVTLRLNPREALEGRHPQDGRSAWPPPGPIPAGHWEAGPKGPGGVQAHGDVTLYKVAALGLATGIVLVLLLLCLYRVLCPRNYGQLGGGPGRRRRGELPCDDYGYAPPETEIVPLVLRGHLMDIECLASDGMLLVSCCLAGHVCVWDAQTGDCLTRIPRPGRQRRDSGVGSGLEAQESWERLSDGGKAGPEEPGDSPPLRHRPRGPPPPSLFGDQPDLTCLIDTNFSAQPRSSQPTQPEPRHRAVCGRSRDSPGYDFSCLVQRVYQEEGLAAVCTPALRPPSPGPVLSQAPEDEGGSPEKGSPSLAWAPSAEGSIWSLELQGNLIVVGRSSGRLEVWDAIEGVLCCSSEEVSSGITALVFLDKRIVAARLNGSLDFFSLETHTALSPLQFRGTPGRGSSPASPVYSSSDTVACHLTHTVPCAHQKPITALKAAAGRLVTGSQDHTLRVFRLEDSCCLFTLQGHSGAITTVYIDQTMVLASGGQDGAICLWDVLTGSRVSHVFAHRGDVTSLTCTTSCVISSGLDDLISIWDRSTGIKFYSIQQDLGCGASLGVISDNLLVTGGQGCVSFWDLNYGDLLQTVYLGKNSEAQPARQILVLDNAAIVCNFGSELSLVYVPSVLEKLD
Test: co-IP; HEK293T cells transiently transfected; lysis buffer 20 mM Tris-HCl pH 7.5, 137 mM NaCl, 5 mM EDTA, 1% NP-40, 10% glycerol; antibody overnight at 4 °C, protein A/G agarose, immunoblot; in Fig. 4e cells in normal medium, LD medium or LD medium with 25-HC

binding: no binding
B1: calnexin (protein, UniProt P27824 21-592)
chain: HDGHDDDVIDIEDDLDDVIEEVEDSKPDTTAPPSSPKVTYKAPVPTGEVYFADSFDRGTLSGWILSKAKKDDTDDEIAKYDGKWEVEEMKESKLPGDKGLVLMSRAKHHAISAKLNKPFLFDTKPLIVQYEVNFQNGIECGGAYVKLLSKTPELNLDQFHDKTPYTIMFGPDKCGEDYKLHFIFRHKNPKTGIYEEKHAKRPDADLKTYFTDKKTHLYTLILNPDNSFEILVDQSVVNSGNLLNDMTPPVNPSREIEDPEDRKPEDWDERPKIPDPEAVKPDDWDEDAPAKIPDEEATKPEGWLDDEPEYVPDPDAEKPEDWDEDMDGEWEAPQIANPRCESAPGCGVWQRPVIDNPNYKGKWKPPMIDNPSYQGIWKPRKIPNPDFFEDLEPFRMTPFSAIGLELWSMTSDIFFDNFIICADRRIVDDWANDGWGLKKAADGAAEPGVVGQMIEAAEERPWLWVVYILTVALPVFLVILFCCSGKKQTSGMEYKKTDAPQPDVKEEEEEKEEEKDKGDEEEEGEEKLEEKQKSDAEEDGGTVSQEEEDRKPKAEEDEILNRSPRNRKPRRE

binding: no binding
B2: golgin-97 (protein, UniProt Q92805 1-767)
chain: MFAKLKKKIAEETAVAQRPGGATRIPRSVSKESVASMGADSGDDFASDGSSSREDLSSQLLRRNEQIRKLEARLSDYAEQVRNLQKIKEKLEIALEKHQDSSMRKFQEQNETFQANRAKMAEGLALALARKDQEWSEKMDQLEKEKNILTAQLQEMKNQSMNLFQRRDEMDELEGFQQQELSKIKHMLLKKEESLGKMEQELEARTRELSRTQEELMNSNQMSSDLSQKLEELQRHYSTLEEQRDHVIASKTGAESKITALEQKEQELQALIQQLSIDLQKVTAETQEKEDVITHLQEKVASLEKRLEQNLSGEEHLQELLKEKTLAEQNLEDTRQQLLAARSSQAKAINTLETRVRELEQTLQASEEQLQQSKGIVAAQETQIQELAAANQESSHVQQQALALEQQFLERTQALEAQIVALERTRAADQTTAEQGMRQLEQENAALKECRNEYERSLQNHQFELKKLKEEWSQREIVSVAMAQALEEVRKQREEFQQQAANLTAIIDEKEQNLREKTEVLLQKEQEILQLERGHNSALLQIHQLQAELEALRTLKAEEAAVVAEQEDLLRLRGPLQAEALSVNESHVTSRAMQDPVFQLPTAGRTPNGEVGAMDLTQLQKEKQDLEQQLLEKNKTIKQMQQRMLELRKTLQKELKIRPDNELFEVREKPGPEMANMAPSVTNNTDLTDAREINFEYLKHVVLKFMSCRESEAFHLIKAVSVLLNFSQEEENMLKETLEYKMSWFGSKPAPKGSIRPSISNPRIPWS
